Data: the antibiotic and cytotoxicity screens of Wong et al. (2023)
This is one part of the list.

Legend:
[1] = test system: HSkMC (human skeletal muscle cells); test: cytotoxicity call (relative viability < 0.9); settings: 10 µM
[2] = test system: HepG2; test: cytotoxicity call (relative viability < 0.9); settings: 10 µM
[3] = test system: S. aureus RN4220; test: growth inhibition call (relative growth <= 0.2); settings: 50 µM

C[C@@H]1CN([C@@H](C)CO)C(=O)c2cc(NS(C)(=O)=O)ccc2O[C@@H](C)CCCCO[C@H]1CN(C)S(=O)(=O)c1cn(C)cn1
inactive: cytotoxicity call [1] | cytotoxicity call [2] | growth inhibition call [3]

CCNC(=O)c1csc(N)n1
inactive: cytotoxicity call [1] | cytotoxicity call [2] | growth inhibition call [3]

C[C@@H]1CN([C@@H](C)CO)C(=O)c2cc(NC(=O)NC3CCCCC3)ccc2O[C@@H](C)CCCCO[C@@H]1CN(C)Cc1ccncc1
inactive: cytotoxicity call [1] | cytotoxicity call [2] | growth inhibition call [3]

C[C@@H]1CCCCO[C@H](CN(C)Cc2ccc(C(F)(F)F)cc2)[C@@H](C)CN([C@@H](C)CO)C(=O)c2cc(NC(=O)Nc3cccc4ccccc34)ccc2O1
inactive: cytotoxicity call [1] | cytotoxicity call [2] | growth inhibition call [3]

COc1ccc(NC(=O)Nc2ccc3c(c2)C(=O)N([C@@H](C)CO)C[C@H](C)[C@H](CN(C)Cc2ccncc2)OCCCC[C@@H](C)O3)cc1
inactive: cytotoxicity call [1] | cytotoxicity call [2] | growth inhibition call [3]

O[C@@H](Cc1ccccc1)[C@@H](/C=C/C1CC1)N(CC#Cc1ccccc1)Cc1ccccc1Br
inactive: cytotoxicity call [1] | cytotoxicity call [2] | growth inhibition call [3]

CC(C)NC(=O)Nc1ccc2c(c1)C(=O)N([C@H](C)CO)C[C@H](C)[C@H](CN(C)C(=O)C1CCCCC1)OCCCC[C@H](C)O2
inactive: cytotoxicity call [1] | cytotoxicity call [2] | growth inhibition call [3]
